In PubChem BioAssay AID1346428 (National Center for Advancing Translational Sciences (NCATS), 2018) one finds activation data, which are given here for 81 molecules.

The structures appear in SMILES notation. Screen size: about 48,000 compounds; about 1,200 (2.5%) were called active. Roughly 2% stayed inconclusive and do not appear here.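 The calls were made as follows: active = activation of at least 60% and not above a set upper limit (about 1 call in 100 departs from these limits); inconclusive = activation of 40% to 60%, or above that upper limit; inactive = activation under 40%.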 The list shows a part of the results.

Sequence of UniProt O75388 (O75388 whole entry, looked up, the tested form may be a part): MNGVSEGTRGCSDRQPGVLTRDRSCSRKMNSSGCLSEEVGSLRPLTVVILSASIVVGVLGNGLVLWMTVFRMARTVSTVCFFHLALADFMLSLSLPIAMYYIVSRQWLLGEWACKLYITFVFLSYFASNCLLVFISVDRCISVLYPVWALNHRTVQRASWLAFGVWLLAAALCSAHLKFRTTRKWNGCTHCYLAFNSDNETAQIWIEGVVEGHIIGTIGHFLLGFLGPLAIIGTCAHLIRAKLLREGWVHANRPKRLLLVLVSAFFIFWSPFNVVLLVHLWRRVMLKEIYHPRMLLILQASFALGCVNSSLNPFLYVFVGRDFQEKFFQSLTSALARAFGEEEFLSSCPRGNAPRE

For this experiment, the target named is Probable G-protein coupled receptor 32 (Homo sapiens) (UniProt O75388). Kind of experiment: qHTS for Agonists of Human Resolvin D1 Receptor DRV1. Also: 0% is about no effect. The settings on record: CHO-K1 GPR32 beta-arrestin PathHunter luminescence, 90 min; at 76.9 µM; active compounds read high; zero percent set by DMSO-only wells. The essentials:
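Agonism was scored by beta-Gal fragment complementation (chemiluminescent read, 1 h detection at ambient temperature) reporting beta-arrestin binding to GPR32 in engineered CHO-K1 cells. Compound treatment lasted 90 min at 37 C, normalized to a DMSO basal control.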
For orientation: Quantitative high-throughput screening tests each substance at several concentrations.
On to `CCOC(=O)C1CCCN(Cc2cn3c(-c4ccc(Br)cc4)nnc3s2)C1` (stereo unspecified), for which the activation is inactive: 5.57%.
As for `CCOc1ccc(NC(=O)Cc2ccc(-n3c(C)nc4cccnc43)cc2)cc1`, the figure is inactive: -24.5%; as for `COc1ccc(NC(=O)C(=O)NCC(c2cccnc2)N2CCc3ccccc3C2)cc1` (stereo unspecified), inactive: -7.55%; as for `O=C(CC1N=C2c3ccccc3N=C(SCc3ccccc3Cl)N2C1=O)NCc1cccs1` (stereo unspecified), inactive: -33.2%.
Consider `CC(=O)N1CCC(N(Cc2ccco2)C(=O)Nc2ccc(Br)cc2F)CC1`, for which the activation is inactive: -4.17%.
Regarding `O=C(Nc1cc(Cl)ccc1Cl)c1cc(S(=O)(=O)N2CCCc3ccccc32)ccc1F`, the activation is inactive: -21.9%.
Turning to `CCN(CC)CCNC(=O)c1[nH]c2ccccc2c1Sc1ccc(Cl)cc1`, the activation was inactive: -31.6%.
Consider `Cc1ccc(NC(=O)CN2C(=O)c3ccccc3Sc3ccc(C(=O)N4CCCC4)cc32)cc1`, for which the activation was inactive: -0.3%.
As for `COc1ccc(NC(=O)C(NC(=O)/C=C\c2ccc3c(c2)OCO3)c2ccc(OC)cc2)cc1` (stereo unspecified), the figure is inactive: -14.5%; as for `CN(C(=O)c1ccc2c(c1)N(Cc1ccccc1F)C(=O)c1ccccc1S2(=O)=O)C1CCCCC1`, inactive: -5.17%; as for `Cc1cc2n(n1)CCC(=O)N2Cc1ccc(C(=O)Nc2ccc(Br)c(C)c2)cc1`, inactive: 8.59%.
Consider `CC1=C(C(=O)Nc2cccnc2)C(c2ccc(Cl)cc2)n2nc(SCc3ccccc3)nc2N1` (stereo unspecified), for which the activation was inactive: -15.7%.
As for `Cc1ccc(-n2nc(C(=O)Nc3cccc(C#N)c3)c3c4ccccc4n(C)c3c2=O)cc1`, the activation was inactive: -1.79%.
As to `COC(=O)c1c(NC(=O)COc2c(C)ccc(C)c2C)sc2c1CCC(C)C2` (stereo unspecified), the activation is inactive: 14.4%.
With `CCCSc1nc2c(c(=O)[nH]1)C(c1ccc(F)cc1F)CC(=O)N2` (stereo unspecified) the figure was inactive: -4.49%; with `O=C(Cn1ncc2ccsc2c1=O)N1CCN(c2ccccc2)CC1`, inactive: -0.808%; with `CCOc1ccc(NC(=O)[C@H](Cc2ccccc2)N2Cc3ccccc3C2=O)cc1`, inactive: 28.2%.
Consider `O=S(=O)(Nc1cccc(-c2ccc(N3CCOCC3)nn2)c1)c1ccccc1C(F)(F)F`, for which the activation is inactive: 22.1%.
Regarding `CCN(CC)c1cc2c(cc1F)c(=O)c(S(=O)(=O)c1ccc(C)cc1)cn2Cc1ccc(F)cc1`, the activation is inactive: -4.81%.
Consider `CCCN1CCN(c2ncnc3sc(C(=O)Nc4cccc(Cl)c4C)c(C)c23)CC1`, for which the activation is inactive: -8.72%.
Consider `O=C(NCCc1ccc(Cl)cc1)c1nc(-c2cccc(F)c2)n2c1CCCCC2`, for which the activation was inactive: -25.3%.
For the molecule `CCOc1ccc(CNC(=O)CN2C(=O)C3CCCCN3c3ccc(C(=O)N4CCCC4)cc32)cc1` (stereo unspecified), the activation is inactive: -14.1%.
As to `CC(C)Oc1ccc(C(=O)N2CC(=O)Nc3ccc(F)cc3C2c2ccc(F)cc2)cc1` (stereo unspecified), the activation was inactive: -27.8%.
Take `COCCNc1ncnc2onc(-c3ccc(F)cc3)c12`: the activation is inactive: 25.7%.
`COc1cc(CNc2ccc3[nH]c(=O)[nH]c3c2)cc(Br)c1OCc1ccc(F)cc1`: the activation was inactive: 18.6%.
Regarding `COc1ccccc1CNC(=O)c1cc2cc(C)ccc2n1C`, the activation was inactive: 18.4%.
As to `COc1ccc(Cn2ccc3nc(C)c(C(=O)N4CCN(c5cc(C)ccc5C)CC4)cc3c2=O)cc1`, the activation was inactive: -23.5%.
As to `O=C(CSc1nc(-c2ccccc2)nc2c1CCCC2)c1ccc(Cl)cc1`, the activation was inactive: 7.37%.
For `O=C(O)CCc1ccc(-c2cccs2)n1CC(=O)Nc1ccccc1C(F)(F)F`, the activation is inactive: -15.3%.
Take `Cc1ccc(C)c(NC(=O)Cn2c(=O)n(Cc3ccc4c(c3)OCO4)c(=O)c3ccc(C(=O)NC4CCCCC4)cc32)c1`: the activation is inactive: -2.55%.
Take `CCOc1ccc(CNC(=O)c2cnc3sc(N4CCCCCC4)nn3c2=O)cc1OC`: the activation was inactive: -6.01%.
As to `Cc1ccc(S(=O)(=O)c2nc(S(=O)(=O)c3ccc(C)cc3)c(NC(C)C)s2)cc1`, the activation is inactive: -13.9%.
As to `Cn1cc(C(F)(F)F)nc1-c1ccc(OCC(O)CNCCOc2ccc(O)c(C(N)=O)c2)cc1` (stereo unspecified), the activation is inactive: -2.1%.
For `CCc1cccc(C)c1NC(=O)C(CC)n1ncn2c(cc3cc(C)ccc32)c1=O` (stereo unspecified), the activation is inactive: -15.2%.
With `Cc1ccc2c(c1)CC(C)N2S(=O)(=O)c1nnc(NC(=O)C(C)C)s1` (stereo unspecified), the activation was inactive: 3.01%.
Take `CCCN(C(=O)c1sc2nc3n(c(=O)c2c1C)CCCC3)c1ccccc1C`: the activation was inactive: -11.2%.
For `CCCNC(=O)C1CCC(Cn2c(=O)c3sccc3n(CC(=O)Nc3ccccc3C)c2=O)CC1` (stereo unspecified), the activation was inactive: 2.58%.
As for `Cc1cccc(NC(=O)C2CCN(S(=O)(=O)c3ccc4c(c3)CCCC(=O)N4)CC2)c1`, the figure is inactive: -12%; as for `COC(=O)c1c(NC(=O)c2cc3nc(-c4ccc(Br)cc4)cc(C(F)(F)F)n3n2)sc2c1CCCC2`, inactive: -21.7%; as for `COc1ccc(OC)c(NC(=O)N2CCC(N3CCN(Cc4ccc(F)cc4)C(=O)C3=O)CC2)c1`, inactive: 20.8%.
On to `CCc1ccc(Nc2cc(C(=O)NCCCN(C)c3ccccc3)c3ccccc3n2)cc1`, for which the activation was inactive: -17.2%.
With `CCOc1ccc(CCNC(=O)c2sc3ncccc3c2-n2c(C)ccc2C)cc1`, the activation is inactive: 4.79%.
As to `CCc1noc(-c2ccc(N(C)Cc3ccc(OC)cc3)c([N+](=O)[O-])c2)n1`, the activation is inactive: -12.7%.
As for `COc1ccc(-c2cc(C(F)(F)F)nc(SCCC(=O)Nc3cccc(O)c3)n2)cc1`, the figure is inactive: 31.7%; as for `Cc1cc(=O)n(CC(=O)Nc2cccc([N+](=O)[O-])c2)c(-n2nc(C)cc2C)n1`, inactive: -18.9%; as for `CC(NC(=O)c1ccc2nc(Cc3ccccc3)oc2c1)c1ccccc1` (stereo unspecified), inactive: -16.5%.
With `Cc1c(Cl)cccc1NC(=O)C(=O)NCC(c1cccnc1)N1CCN(c2ccccc2)CC1` (stereo unspecified) the figure was inactive: -9.01%; with `COc1ccc(NC(=O)Cn2cc(C(=O)C3CCCCC3)c3ccccc32)cc1`, inactive: -15.9%.
For the molecule `COCc1cc(C)nc2sc3c(c12)NC(c1ccccc1C(=O)O)N(c1ccc(OC)cc1)C3=O` (stereo unspecified), the activation is inactive: -21.5%.
For the molecule `CC(=O)c1ccc(NC(=O)COc2ccccc2-c2nc(-c3ccccc3)no2)cc1`, the activation is inactive: -10.1%.
`CCc1ccc(C(=O)c2cn(CC(=O)Nc3ccc4c(c3)OCCO4)c3ccc(C)cc3c2=O)cc1`: the activation is inactive: 11.8%.
With `CCOC(=O)c1c(C)[nH]c(C)c1S(=O)(=O)NCC(=O)N1CCN(c2cc(Cl)ccc2C)CC1`, the activation is inactive: 6.23%.
`O=C(CCSCc1ccccc1Cl)N1CCN(c2ccc(F)cc2)CC1`: the activation is inactive: -26.9%.
With `CC(Oc1ccccc1)C(=O)N1CCN(Cc2cc(=O)n3nc(-c4ccccc4Cl)sc3n2)CC1` (stereo unspecified) the figure was inactive: -1.77%.
With `O=c1cc(CN2CCN(S(=O)(=O)c3ccccc3)CC2)nc2sc(-c3ccccc3Cl)nn12` the figure was inactive: -1.69%; with `Cc1ccc(C)c(NC(=O)c2nnn(CC(=O)Nc3cccc(C)c3C)c2N)c1`, inactive: 1.73%; with `O=c1c2c3c(sc2n(Cc2cc(=O)n4ccccc4n2)c(=O)n1-c1ccccc1)CCC3`, inactive: -12%.
With `Cc1ccc(NC(=O)C(Cc2ccccc2)NS(=O)(=O)c2cccs2)cc1Cl` (stereo unspecified), the activation was inactive: -3.06%.
For the molecule `O=C(CS(=O)(=O)c1nc(-c2ccc(Cl)cc2)cn1-c1ccccc1)Nc1ccc(F)cc1F`, the activation is inactive: 3.09%.
As for `COc1ccccc1CNC(=O)CN1C(=O)c2cccnc2Oc2ccccc21`, the activation was inactive: -10.3%.
Consider `Cc1ccc(-c2noc(CSc3nnc(C)n3-c3ccc(C)cc3)n2)cc1`, for which the activation was inactive: -11.8%.
For the molecule `COc1ccc(/C=C/c2onc(C)c2S(=O)(=O)N2CCC(C(=O)N3CCCCC3)CC2)cc1`, the activation is inactive: -18.6%.
Turning to `COc1ccc(NC(=O)CCCc2nnc3n(CCC(C)C)c(=O)c4sccc4n23)cc1Cl`, the activation was inactive: -19.2%.
As to `COc1ccc(OCCSc2nc3ccccc3n2CC(=O)N2CCOCC2)cc1`, the activation is inactive: -11.8%.
With `COc1ccc(-c2cc(C(C)=O)c(C)n2CCC(=O)NC2CCCCC2)cc1` the figure was inactive: -8.37%; with `CCOc1ccc(CNC(=O)C2CCN(C(=O)c3sccc3-n3cccc3)CC2)cc1`, inactive: -26.4%; with `Cc1ccc(-n2c(SCCC(C)C)nc3sc4c(c3c2=O)CC(C)(C)OC4)cc1`, inactive: -7.15%.
For `COc1ccc(S(=O)(=O)Nc2cccc(-c3ccc(N4CCCC4)nn3)c2)cc1OC`, the activation is inactive: 26.5%.
For the molecule `O=C(Nc1cccc(C(F)(F)F)c1)Nc1nnc(N2CCCCC2)s1`, the activation was inactive: -6.83%.
With `Clc1ccc(CNc2cc(-c3ccccc3)nc3nncn23)cc1`, the activation is inactive: 0%.
For `CCCNC(=O)Cn1nc(-c2ccc(C)c(C)c2)c2cnc3ccc(F)cc3c21`, the activation is inactive: 10.8%.
For the molecule `Cc1ccc(C)c(CN2C(=O)CSc3ccc(C(=O)NCCc4ccc(Cl)cc4)cc32)c1`, the activation is inactive: 10%.
With `CCN(c1ccccc1)S(=O)(=O)c1ccc2[nH]cc(C(=O)NCc3ccc(C)cc3)c(=O)c2c1`, the activation is active: 62.8%.
In the case of `N#Cc1c(Nc2cccc(F)c2)sc(C(=O)c2ccc(Cl)cc2)c1N`, the activation is inactive: -8.01%.
As for `COc1ccc(N2CC(NC(=O)c3ccc(OC(C)C)cc3)CC2=O)cc1` (stereo unspecified), the figure is inactive: -9.67%.
Take `Cc1c(-c2ccc(Cl)cc2)c(=O)oc2c(CN3CCCC3)c(O)ccc12`: the activation was inactive: 5.42%.
`Cc1cc(C)nc(NS(=O)(=O)c2ccc(N)cc2)n1`: the activation is inactive: 12.2%.
Turning to `Cc1ccc(OCC(=O)Nc2ccc3nc(Nc4cccc(Cl)c4)cc(C)c3c2)cc1`, the activation is inactive: 1.86%.
`COc1ccc(-c2nc3sc(CCNS(=O)(=O)c4ccc(F)c(C)c4)c(C)n3n2)cc1`: the activation is inactive: 6.36%.
`COc1ccccc1CNC(=O)CN1C(=O)CCn2nc(-c3ccccc3)cc21`: the activation is inactive: -6.25%.
For the molecule `COc1ccc(N(C(=O)COc2ccccc2OC)S(=O)(=O)c2ccc(Cl)cc2)cc1`, the activation is inactive: 10.5%.
